According to a collection of fitness landscapes (doi:10.1016/j.celrep.2020.107928):
Whole data set: some 81,000 sequences, median “one-hybrid fitness for binding NBS DNA” near -0.1, cut for the highest 2% near 0.36. This is one part of the list.

B1: Caulobacter ParB omega fusion; a variant is named by its letters at X, in order, B8GW30 (parent)
chain: MESVVVGEPGMSEGRRGLGRGLSALLGEVDAAPAQAPGEQLGGSREAPIEILQRNPDQPRRTFREEDLEDLSNSIREKGVLQPILVRPSPDTAGEYQIVAGERAWRAAQRAGLKTVPIMVRELDDLAVLEIGIIENVQRADLNVLEEALSYKVLMEKFERTQENIAQTIGKSXSHVANXMRLLXLPDEVQSYLVSGELTAXHARAIAAAADPVALAKQIIEGGLSVRETEALARKAPNLSAGKSKGGRPPRVKDTDTQALESDLSSVLGLDVSIDHRGSTGTLTITYATLEQLDDLCNRLTRGI

Variants of: B1
Test: one-hybrid fitness for binding NBS DNA (the Noc-binding site; scaled: cognate 1, non-cognate 0); higher = stronger binding
Conditions: with NBS DNA site
How it was run: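 Caulobacter ParB libraries with four specificity codons randomised were screened by bacterial one-hybrid selection in the E. coli USO strain, using a HIS3 reporter whose site lies 19 bp from the promoter. Selection ran for 48 hours at 37°C on M9 lacking histidine, with 0.1 mM IPTG and 5 mM 3-AT. Plasmids were Illumina-sequenced before and after selection, three replicate libraries were pooled, and variants with under 10 reads were dropped. Fitness is the log change in each variant's read ratio to wild type, rescaled against the cognate and non-cognate sites.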

Row | Variant | one-hybrid fitness for binding NBS DNA
1 | HRWS | ≤ 0.2
2 | CYMS | ≤ 0.2
3 | FRSM | ≤ 0.2
4 | PSGS | ≤ 0.2
5 | VEIY | ≤ 0.2
6 | QPKG | ≤ 0.2
7 | PASC | ≤ 0.2
8 | FDTV | ≤ 0.2
9 | HWTY | ≤ 0.2
10 | SYCS | ≤ 0.2
11 | IVPY | ≤ 0.2
12 | QAER | 0.304
13 | IDHM | ≤ 0.2
14 | VAWQ | ≤ 0.2
15 | WVCG | ≤ 0.2
16 | VWPS | ≤ 0.2
17 | RDHE | ≤ 0.2
18 | CSAG | ≤ 0.2
19 | FVVC | ≤ 0.2
20 | QCRE | 0.369
21 | VKMS | ≤ 0.2
22 | YFTV | ≤ 0.2
23 | AKYC | ≤ 0.2
24 | GHSY | ≤ 0.2
25 | FMEG | ≤ 0.2

Row | Variant | one-hybrid fitness for binding NBS DNA
26 | QTLL | ≤ 0.2
27 | STSH | ≤ 0.2
28 | QLYS | 0.252
29 | AVPG | ≤ 0.2
30 | HSSN | ≤ 0.2
31 | TQVY | ≤ 0.2
32 | ISSN | ≤ 0.2
33 | HPMR | ≤ 0.2
34 | PCFK | ≤ 0.2
35 | RAEH | ≤ 0.2
36 | KSTF | ≤ 0.2
37 | LLSH | ≤ 0.2
38 | NNMV | ≤ 0.2
39 | ANWN | ≤ 0.2
40 | VAIS | ≤ 0.2
41 | GILV | ≤ 0.2
42 | QMES | 0.268
43 | KWHR | ≤ 0.2
44 | RLAI | ≤ 0.2
45 | DGLV | ≤ 0.2
46 | DWRT | ≤ 0.2
47 | NFIG | ≤ 0.2
48 | ETVY | ≤ 0.2
49 | KRPV | ≤ 0.2
50 | CFNT | ≤ 0.2

Row | Variant | one-hybrid fitness for binding NBS DNA
51 | GLYM | ≤ 0.2
52 | WSLF | ≤ 0.2
53 | CLHT | ≤ 0.2
54 | RRFY | 0.314
55 | SEHV | ≤ 0.2
56 | CQPG | ≤ 0.2
57 | RLEP | ≤ 0.2
58 | DKPK | ≤ 0.2
59 | IQYC | ≤ 0.2
60 | DCLV | ≤ 0.2
61 | WKST | ≤ 0.2
62 | KSYK | ≤ 0.2
63 | YVMG | ≤ 0.2
64 | VWTA | ≤ 0.2
65 | RWFY | ≤ 0.2
66 | AAVI | ≤ 0.2
67 | YDVS | ≤ 0.2
68 | SVLI | ≤ 0.2
69 | TIGF | ≤ 0.2
70 | MRAS | ≤ 0.2
71 | FGCT | ≤ 0.2
72 | TPDS | ≤ 0.2
73 | NYAG | ≤ 0.2
74 | RKAS | 0.597
75 | ALPF | ≤ 0.2

Row | Variant | one-hybrid fitness for binding NBS DNA
76 | FVLQ | ≤ 0.2
77 | HMFG | ≤ 0.2
78 | GIAS | ≤ 0.2
79 | QVLM | ≤ 0.2
80 | STAK | ≤ 0.2
81 | SYKA | ≤ 0.2
82 | WGTW | ≤ 0.2
83 | RWTW | ≤ 0.2
84 | LDGG | ≤ 0.2
85 | AGAR | ≤ 0.2
86 | STGC | ≤ 0.2
87 | DHWR | ≤ 0.2
88 | SNTG | ≤ 0.2
89 | GQYP | ≤ 0.2
90 | KEKR | ≤ 0.2
91 | ILRR | ≤ 0.2
92 | NAYI | ≤ 0.2
93 | TANF | ≤ 0.2
94 | KKKM | ≤ 0.2
95 | VAWT | ≤ 0.2
96 | LKAD | ≤ 0.2
97 | PLNQ | ≤ 0.2
98 | SALG | ≤ 0.2
99 | NRQR | ≤ 0.2
100 | MLLY | ≤ 0.2

Row | Variant | one-hybrid fitness for binding NBS DNA
101 | GYRC | ≤ 0.2
102 | LAGN | ≤ 0.2
103 | GRVC | ≤ 0.2
104 | SLRR | ≤ 0.2
105 | AKAY | ≤ 0.2
106 | GARL | ≤ 0.2
107 | SQYV | ≤ 0.2
108 | VTSR | ≤ 0.2
109 | LNQK | ≤ 0.2
110 | HRAA | ≤ 0.2
111 | RHLR | 0.329
112 | LRSW | ≤ 0.2
113 | HRVS | ≤ 0.2
114 | MTND | ≤ 0.2
115 | KVPR | ≤ 0.2
116 | FSQR | ≤ 0.2
117 | EGRT | ≤ 0.2
118 | SWHY | ≤ 0.2
119 | AYDR | ≤ 0.2
120 | PGSR | ≤ 0.2
121 | FNNG | ≤ 0.2
122 | LEST | ≤ 0.2
123 | CISS | ≤ 0.2
124 | TVKH | ≤ 0.2
125 | IDAK | ≤ 0.2

Row | Variant | one-hybrid fitness for binding NBS DNA
126 | KLDL | ≤ 0.2
127 | PISG | ≤ 0.2
128 | QFPS | ≤ 0.2
129 | LNPD | ≤ 0.2
130 | DLYL | ≤ 0.2
131 | RFEA | ≤ 0.2
132 | TRKH | 0.364
133 | PNLR | ≤ 0.2
134 | ITSK | ≤ 0.2
135 | HKFS | ≤ 0.2
136 | QGVA | ≤ 0.2
137 | TDQT | ≤ 0.2
138 | WRTS | ≤ 0.2
139 | YHSC | ≤ 0.2
140 | NHPE | ≤ 0.2
141 | MTCD | ≤ 0.2
142 | LARW | ≤ 0.2
143 | RHMA | ≤ 0.2
144 | EENK | ≤ 0.2
145 | DFTT | ≤ 0.2
146 | EQNW | ≤ 0.2
147 | AMIG | ≤ 0.2
148 | AEKC | ≤ 0.2
149 | KYYC | ≤ 0.2
150 | SRAY | ≤ 0.2

Row | Variant | one-hybrid fitness for binding NBS DNA
151 | SQPS | ≤ 0.2
152 | QGIG | ≤ 0.2
153 | QWSC | ≤ 0.2
154 | TVAD | ≤ 0.2
155 | LMSG | ≤ 0.2
156 | PPSH | ≤ 0.2
157 | RDNM | ≤ 0.2
158 | NNEA | ≤ 0.2
159 | YAPT | ≤ 0.2
160 | GDAS | ≤ 0.2
161 | DLTP | ≤ 0.2
162 | TPVK | ≤ 0.2
163 | SHSI | ≤ 0.2
164 | YDAI | ≤ 0.2
165 | DSWG | ≤ 0.2
166 | QDPT | ≤ 0.2
167 | VLYV | ≤ 0.2
168 | NVRF | ≤ 0.2
169 | NGPA | ≤ 0.2
170 | AGVC | ≤ 0.2
171 | SKWH | ≤ 0.2
172 | HNSK | ≤ 0.2
173 | SLSE | ≤ 0.2
174 | DHGR | ≤ 0.2
175 | AHPE | ≤ 0.2

Row | Variant | one-hybrid fitness for binding NBS DNA
176 | TPQS | ≤ 0.2
177 | NTKH | ≤ 0.2
178 | MWYR | ≤ 0.2
179 | VMPG | ≤ 0.2
180 | LLDT | ≤ 0.2
181 | YQCV | ≤ 0.2
182 | VLFM | ≤ 0.2
183 | QYPE | ≤ 0.2
184 | GGAS | ≤ 0.2
185 | CCTY | ≤ 0.2
186 | TRHT | 0.364
187 | WYQS | ≤ 0.2
188 | SVKL | ≤ 0.2
189 | QCNT | 0.569
190 | WAKG | ≤ 0.2
191 | LCSA | ≤ 0.2
192 | RAKR | 0.668
193 | QICV | ≤ 0.2
194 | ARID | ≤ 0.2
195 | YHKS | ≤ 0.2
